# Experimental data as given in PubChem BioAssay AID1508624 (National Center for Advancing Translational Sciences (NCATS), 2021).
# Out of some 48,000 compounds screened, about 120 (0.25%) were called active. Another 4% or so got no clear call; they are omitted. The call rests on the fitted dose curve; in most records, active means well fitted activation curve with a large enough effect; inconclusive means small, poorly fitted or top-dose-only effect, or another doubt; inactive means no such curve, though single readings can be large or run the other way. This is one part of the list.
# Test: Primary qHTS for Identification of Small Molecule Activators of Huntingtin-Antisense Promoter Activity; further: nearly all actives have a fitted effect of over 55% in size
# Conditions: HEK293 HTT-AS promoter firefly luciferase reporter (activity 0% = vehicle and -100% = no light), 24 h; series mostly up to 57.5 µM; activity change, positive = activation: at the top concentration
# Method in brief: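 Firefly luciferase signal from promoter-reporter HEK293 cells was scaled between vehicle (0%) and zero RLU (-100%). Compounds were tested at final concentrations of up to 57.5 uM over 24 h at 37 degrees C. PTC124 at 50 uM final served as control inhibitor.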
# Potency means the concentration at half of the fitted maximal effect.
SMILES,"activity change, positive = activation",Potency
COc1ccccc1-c1nnc(SCCOc2ccccc2C)o1,inactive: 0.768%,
CCc1cccc(CC)c1NS(=O)(=O)c1ccc2c(c1)CCN2C(=O)C1CC1,inactive: -26.3%,
CC(C)c1ccc(S(=O)(=O)c2cnc(SCC(=O)Nc3cccc(C(F)(F)F)c3)nc2N)cc1,inactive: -39.3%,
CCOC(=O)c1cc(-c2ccc(OC)c(S(=O)(=O)Nc3ccc(OC)cc3OC)c2)on1,inactive: -11.7%,
Cc1ccc(CNC(=O)c2nnc(Cc3cccc(F)c3)o2)cc1,inactive: -15%,
COC(=O)c1sccc1S(=O)(=O)N1CCN(c2ccccc2OC)CC1,inactive: -9.93%,
O=C(Nc1ccc2nc(SCCOc3ccccc3Cl)sc2c1)c1cccs1,inactive: -14.6%,
COc1ccc(N2CC(C(=O)Nc3ccc(NC(C)=O)cc3)CC2=O)cc1 (stereo unspecified),inactive: -5.13%,
O=C(NCc1ccc(Cl)cc1)C1CCCN(C(=O)c2cnn(-c3ccc(F)cc3)c2-n2cccc2)C1 (stereo unspecified),inactive: -37.2%,
O=C(CCn1c(=O)c2cccn2c2ccc(F)cc21)NCCc1ccccc1,inactive: -18.1%,
Cc1ccc(C)c(Nc2cc(C(=O)NC3CCCCC3)c3ccccc3n2)c1,inactive: -4.44%,
CCC(=O)N1CCc2cc(CNC(=O)C(CC)c3ccccc3)ccc21 (stereo unspecified),inactive: 1.53%,
CCc1cccc(NC(=O)CCc2c(C)nc3c(c2C)c(=O)n(C)c(=O)n3C)c1,inactive: -34.5%,
Cc1ccc(CNC(=O)CCSCc2ccccc2F)cc1,inactive: -14.1%,
O=C(NCc1cccnc1)c1nn(-c2ccccc2F)nc1CO,inactive: -38.9%,
CC(=O)N(CC(=O)N(C)C)c1ccccc1,inactive: -25.1%,
Cc1cc(C)c2oc(C(=O)Nc3sc4c(c3C(=O)NCc3ccco3)CCCC4)cc(=O)c2c1,inactive: 0.346%,
Cc1ccc(N(C(=O)COc2ccccc2C)S(=O)(=O)c2ccc(Cl)cc2)cc1,inactive: -17%,
Cc1ccc(Nc2c(-c3cc(Br)ccc3F)nc3cc(C)ccn23)cc1,inactive: -25.4%,
COc1ccccc1NC(=O)Cn1c(=O)n(-c2ccc(C)cc2)c(=O)c2ccc(C(=O)NCc3ccco3)cc21,inactive: -22%,
CCOc1ccc(NC(=O)N2CCC(CN3CCc4ccccc4C3)CC2)cc1,inactive: -5.37%,

SMILES,"activity change, positive = activation",Potency
CCOCCCNC(=O)c1ccc(NC(=O)N2CCCCc3ccccc32)cc1,inactive: -12%,
COc1ccccc1N1CCN(c2ccc(=O)n(CC(=O)Nc3ccc(F)c(F)c3)n2)CC1,inactive: -21.5%,
Cc1nc(-c2ccc(Cl)cc2)sc1CCNC(=O)c1ccc(C(F)(F)F)cc1,inactive: -7.63%,
Cc1ccc(C)c(NC(=O)CCn2nc(C)c3c(C)n(-c4ccccc4)nc3c2=O)c1,inactive: -2.71%,
Cc1cccc(-c2nn3c(=O)cc(CN4CCN(S(=O)(=O)c5ccc(Cl)cc5)CC4)nc3s2)c1,inactive: -23.2%,
CCC(C(=O)Nc1ccccc1C(=O)OC)n1nc(C)c2c(C)n(-c3ccc(C)cc3)nc2c1=O (stereo unspecified),inactive: -25.3%,
CCC1CCc2nc3sc(C(=O)Nc4ccc(F)c(Cl)c4)c(N)c3cc2C1 (stereo unspecified),inactive: -2.82%,
Cc1ccccc1Cn1c(=O)n(CCc2ccccc2)c(=O)c2c(C)c(C)sc21,inactive: 16.8%,
COc1cccc(OCCSc2nc3ccccc3n2CC(=O)N2CCCCC2)c1,inactive: -20.6%,
COc1ccc(-c2nc(CN3CCC(C(=O)NCCCOC(C)C)CC3)c(C)o2)cc1OC,inactive: -7.92%,
COc1cccc(-n2cc(C(=O)NCc3ccccc3OC)c3ccccc3c2=O)c1,inactive: -12%,
CCC[C@H](Nc1nc(-c2ccc(NC(=O)NCC)c(OC)c2)ncc1C)c1cccnc1,inactive: -43.8%,
CCc1cc2c(cc3c(=O)n(CC(=O)NCCc4ccc(OC)c(OC)c4)ncn32)s1,inactive: -14.4%,
COC(=O)c1cc(S(=O)(=O)NCC2CCN(Cc3cccc(F)c3)CC2)c[nH]1,inactive: 3.75%,
O=C(CCn1ccc2cc(S(=O)(=O)N3CCCC3)ccc21)NCc1cccc(F)c1,inactive: -19.2%,
COC(=O)CSc1nc(-c2ccc(F)cc2)cc(C(F)(F)F)n1,inactive: -20.6%,
COc1cc(OC)c(C2Nc3ccccc3-c3nnc(SCc4ccccc4)nc3O2)cc1OC (stereo unspecified),inactive: 27.8%,
COc1ccc(OC)c(C2N=C(N)Nc3nc4ccccc4n32)c1 (stereo unspecified),inactive: -14.6%,
COc1ccc(NC(=O)Cn2c(=O)n(Cc3nc(C)no3)c(=O)c3cc4c(cc32)OCO4)cc1OC,inactive: -11%,
Cc1cccc(C)c1-n1ncc(C(=O)NCCN2CCOCC2)c1C1CCN(C(=O)OC(C)(C)C)CC1,inactive: -1.55%,
O=C(CC(c1cccs1)N1Cc2ccccc2C1=O)Nc1ccc(F)c(Cl)c1 (stereo unspecified),inactive: -31.6%,

SMILES,"activity change, positive = activation",Potency
CC(=O)Nc1cc(C(=O)NCc2ccc(C)cc2)ccc1Sc1ccc(C)cc1,inactive: -30.7%,
C=CCC(CC=C)(CNC(=O)C(=O)Nc1cccc(C(F)(F)F)c1)c1ccccc1,inactive: -18.7%,
CCc1ccc(-c2nc(CN3CCCC(C(=O)N4CCN(c5cc(Cl)ccc5C)CC4)C3)c(C)o2)cc1 (stereo unspecified),inactive: -68.8%,
CC(CNC(=O)Cn1ccc2cc(S(=O)(=O)N3CCCCCC3)ccc21)c1ccccc1 (stereo unspecified),inactive: -21.4%,
COc1ccc(Cl)cc1NC(=O)CN(C)S(=O)(=O)c1ccc2c(c1)CCCN2C(C)=O,inactive: -10.5%,
COc1ccc(-c2noc(-c3cccnc3NCc3ccco3)n2)cc1,,active: 11.2 µM
Cc1cccc(-n2c(=O)c3c(c4cc(C)ccc4n3C)n(CC(=O)NCCC3=CCCCC3)c2=O)c1,inactive: -8.84%,
CCC1CN(C(=O)N2CCC(C(=O)NCCN(CC)CC)CC2)c2ccccc2O1 (stereo unspecified),inactive: -7.19%,
CCOC(=O)CSc1nc2ccccc2c(=O)n1CCc1ccc(OC)c(OC)c1,inactive: -54.7%,
COc1ccc(-c2onc(C)c2C)cc1S(=O)(=O)NCC1CCN(Cc2ccccc2F)CC1,inactive: -17.9%,
Cc1ccc(Oc2c(C(F)(F)F)oc3cc(OCC(=O)NC4CCCCC4)ccc3c2=O)cc1,inactive: 2.81%,
CCCN1C(=O)C(O)(CC(=O)c2ccc(CC)cc2)c2ccccc21 (stereo unspecified),inactive: -19.1%,
CCc1cccc(C)c1NC(=O)CSc1nc(C)cc(C)c1C(=O)Nc1ccccc1,inactive: -19.5%,
COc1ccc(NC(=O)C(c2ccc(C)cc2)N(C)C(=O)Cc2cccs2)cc1 (stereo unspecified),inactive: 4.69%,
Cc1c(Cl)cccc1NC(=O)C(C)n1c(=O)cc(-c2ccccc2)c2c(C)nn(C)c21 (stereo unspecified),inactive: -1.81%,
CCc1ccc(NC(=O)c2sc3nc(C)c(Cl)c(C)c3c2N)cc1,,active: 2.51 µM
O=C(Cn1c(-c2cccs2)cc2cc(Cl)ccc21)N1CCN(c2ccccc2)CC1,inactive: -9.9%,
COc1ccc(-c2cccc(NS(=O)(=O)c3cc(C)c(OC)c(C)c3C)c2)nn1,inactive: -53.4%,
CCOc1ccccc1C(=O)N1CC(=O)Nc2ccc(Cl)cc2C1c1ccccc1 (stereo unspecified),inactive: -30.4%,
